Measurements as given in the CheMixHub ionic liquid set.
The source gives many values for each of these; only a part stands here.

Assay: xn = mol fraction of the nth substance listed
Settings: for electrical conductivity: 101 kPa; for viscosity: 328.15 K, 100.3 kPa

CCCC[n+]1ccn(C)c1.CS(=O)(=O)[O-] + O
Settings | electrical conductivity [S/m]
298.15 K, x2 = 0.704 | 0.578
302.15 K, x2 = 0.785 | 1.33
303.15 K, x2 = 0.704 | 0.72
305.15 K, x2 = 0.704 | 0.784
307.15 K, x2 = 0.785 | 1.59
309.15 K, x2 = 0.796 | 1.75
312.15 K, x2 = 0.796 | 1.92
319.15 K, x2 = 0.704 | 1.31
321.15 K, x2 = 0.704 | 1.4
321.15 K, x2 = 0.796 | 2.48
322.15 K, x2 = 0.704 | 1.44
322.15 K, x2 = 0.796 | 2.55
325.15 K, x2 = 0.704 | 1.58
325.15 K, x2 = 0.796 | 2.76
327.15 K, x2 = 0.704 | 1.76
330.15 K, x2 = 0.796 | 3.13
331.15 K, x2 = 0.704 | 1.91
337.15 K, x2 = 0.796 | 3.68
338.15 K, x2 = 0.796 | 3.77
342.15 K, x2 = 0.785 | 3.92
344.15 K, x2 = 0.704 | 2.75
345.15 K, x2 = 0.785 | 4.2
345.15 K, x2 = 0.796 | 4.39
346.15 K, x2 = 0.704 | 2.89
346.15 K, x2 = 0.796 | 4.52
347.15 K, x2 = 0.796 | 4.54
349.15 K, x2 = 0.796 | 4.81
353.15 K, x2 = 0.704 | 3.46
353.15 K, x2 = 0.785 | 4.91
353.15 K, x2 = 0.796 | 5.09
355.15 K, x2 = 0.704 | 3.65

CCCC[n+]1ccn(C)c1.C[C@H](N)C(=O)[O-] + O
Settings | viscosity [mPa·s]
x1 = 0.002927 | 0.58
x1 = 0.004981 | 0.625
x1 = 0.007048 | 0.672
x1 = 0.009016 | 0.717
x1 = 0.01103 | 0.764
x1 = 0.01317 | 0.807
x1 = 0.01511 | 0.851
x1 = 0.01781 | 0.911
